Experimental data as given in PubChem BioAssay AID588855 (National Center for Advancing Translational Sciences (NCATS), 2011).
Hit rate of the full screen: of about 410,000 compounds, about 5,000 (1.2%) were called active. Inconclusive results, whose numbers are uncertain, are shown with a selection of clear calls. Calls follow the shape of the dose curve; as a rule, active = well fitted inhibition curve with a large enough effect; inconclusive = small, poorly fitted or top-dose-only effect; inactive = no such curve, though single readings can be large or run the other way. A potency beside an inconclusive call is a rough fit, not a confirmed value.
Potency is read from the fitted curve at half-maximal effect; tags tell the direction and shape of the fitted curve.

Assay: qHTS for Inhibitors of TGF-b; also: nearly all actives have a fitted effect of over 65% in size
Conditions: HepG2 CAGA-GFP TGF-b/SMAD3 reporter, GFP fluorescence, 18 h, TGF-beta stimulated, 500 pg/mL final; series mostly up to 46.1 µM; activity, negative = inhibition: at the top concentration
Source text: TGF-b is a main component in the TGF-b signaling pathway which plays diverse roles in cellular and development pathways. TGF-b is the mediated by the transcription factors Smads. Although the Smad-dependent pathway is the primary canonical TGF-b signaling node, TGF-b1 can also activate alternative signaling pathways, including those involving MAPK (ERK, JNK and p38). This interaction may mediate or enhance Smad-dependent responses, or can exert Smad-independent effects. The complexity of this signaling cascade allows the TGF-b superfamily to perform unique, overlapping or redundant functions. We believe that targeting the TGF-beta pathway at the Smad-transcription factor level may eliminate the consequences of disrupting the entire pathway and offer specificity without affecting other signaling pathways. Smad3 is the primary transducer of TGF-b's signals and Smad3 regulates many functions attributed to TGF-b signaling. We hypothesize that Smad3 inhibitors will selectively eliminate Smad3-specific TGF-beta signals without undesired off-target effects. We aim to identify Smad3-small molecule antagonists using a quantitative high throughput screening (qHTS) approach.
A high-throughput assay was developed to screen the NIH Molecular Libraries Small Molecule Repository (MLSMR). This is a cell based assay, where TGF-b is tagged with GFP. A counterscreen is run that looks at cytotoxicity (please see summary AID).
MH087449NIH Chemical Genomics Center [NCGC]
NIH Molecular Libraries Probe Centers Network [MLPCN]
Assay Submitter (PI): Sushil Rane, National Institute of […]
Suspensions of trypsinized HEPG2 CAGA-GFP cells were dispensed into white, tissue culture-treated, solid 1536-well plates at 5uL/well (1000 cells/well final concentration) in DMEM medium supplemented with 1% FBS. Plates were incubated at 37 degrees C for 2 hours, after which 23 nL of compounds or DMSO were delivered to each well using a pin tool. One uL of recombinant TGF-beta in DMEM (1% FBS) was then dispensed (500 pg/mL final concentration), and plates were incubated at 37 degrees C for 18 hours. The plates were measured on an Acumen eX3 Explorer plate reader for GFP fluorescence (ex488/em500-530). GFP values were calculated by determining the mean GFP fluorescence of individual cells, and compiling these values for each well to determine a total well GFP signal. The %Activity was determined from the corrected fluorescence values. A titration of the known TGF-B inhibitor SB431542 was included to monitor plate performance, while unstimulated HEPG2 (-TGF-B) control wells were used to normalize %Activity of identified inhibitors; unstimulated wells corresponded to 100%Activity (full inhibition), while stimulated cell controls (+DMSO) were used to normalize 0%Activity (no inhibition).
Concentration-response curves were fitted to the signals arising from the resulting fluorescence. The concentration-effect curves were then classified based on curve quality (r2), response magnitude and degree of measured activity, and compounds were subsequently categorized based on their curve class.
In the case of `COC12CCC3(CC1C(C)(O)C(C)(C)C)[C@H]1Cc4ccc(O)c5c4[C@@]3(CCN1CC1CC1)C2O5` (stereo not given in full), the Potency is reported as inconclusive: 35.5 µM [inhibitor, single point].
For `COC(=O)C1=C(c2ccc(Cl)c(C(F)(F)F)c2)C[C@@H]2CC[C@H]1N2C(=O)N1CCCC1`, the “activity, negative = inhibition” value was inactive: -24.3%.
For `Clc1ccc(C(Cn2ccnc2)OCc2csc3c(Cl)cccc23)c(Cl)c1` (stereo not given), the Potency was inconclusive: 35.5 µM [inhibitor, single point].
For `NCC(=O)c1ccccc1`, the Potency was “inactive”.
With `C[C@]12CC[C@@H]3c4ccc(O)c(O)c4CC[C@H]3[C@@H]1CC[C@@H]2O` the Potency was inconclusive: 31.6 µM [inhibitor, single point].
For `CN1C(=O)/C(=C/c2cccn2-c2ccc3ccccc3c2)C(=O)NC1=S`, the Potency was active: 15.8 µM.
In the case of `Cc1[nH]nc2ccc(-c3cncc(OC[C@@H](N)Cc4c[nH]c5ccccc45)c3)cc12`, the Potency is reported as active: 1 µM.
In the case of `CC(C)C12CN3CCN(CC(C3)C1O)C2` (stereo not given), the Potency is reported as inconclusive: 11.2 µM [inhibitor, single point].
In the case of `Cn1nc(-c2ccc(C(=O)Nc3ccc(OC(F)(F)F)cc3)cc2)c2ccccc2c1=O`, the Potency is reported as inconclusive: 7.94 µM [inhibitor, partial curve, poor fit].
For `O=C(CN1CCN(S(=O)(=O)c2ccc3ccccc3c2)CC1)NC(=O)NC1CCCCC1`, the Potency was inconclusive: 15.8 µM [inhibitor, single point].
For `O=[N+]([O-])c1ccccc1CNCCc1c[nH]c2ccccc12`, the “activity, negative = inhibition” value was inactive: 0.139%.
For `COc1ccc(OC)c(-n2c(O)c(/C=C3\C=Nc4ccccc43)c(=O)[nH]c2=O)c1`, the Potency was inconclusive: 10 µM [inhibitor, partial curve, poor fit].
In the case of `CSCc1nnc2n1-c1ccc(Cl)cc1C(c1ccccc1)=NC2`, the Potency is reported as inconclusive: 22.4 µM [inhibitor, single point].
In the case of `CCN(CC)C(=O)Cn1cc(C=C2C(=O)N(C)C(=O)N(C)C2=O)c2ccccc21`, the Potency is reported as inconclusive: 0.251 µM [inhibitor, full curve, poor fit].
For `CC(=O)OC1N=C(c2ccc(Cl)cc2)c2cc(Br)ccc2NC1=O` (stereo not given), the Potency was inconclusive: 35.5 µM [inhibitor, single point].
In the case of `CCOP(=O)(OCC)C(Nc1cccc(C(F)(F)F)c1)c1ccc(C)cc1` (stereo not given), the Potency is reported as inconclusive: 25.1 µM [inhibitor, single point].
For `CCOC(=O)C1=CC(=C2C(=O)N(CC)C(=S)N(CC)C2=O)c2ccccc2O1`, the “activity, negative = inhibition” value was inactive: 1.22%.
For `C[C@H](CO)N1C[C@H](C)[C@@H](CN(C)Cc2ccc(-c3ccccc3)cc2)Oc2c(NC(=O)c3ccncc3)cccc2C1=O`, the Potency was inconclusive: 35.5 µM [inhibitor, single point].
With `Cc1ccc(OCCOc2cccc(C=C3C(=O)NC(=O)NC3=O)c2)cc1` the “activity, negative = inhibition” value was inactive: -0.464%.
With `CC12CC[C@H]3[C@@H](CCC4(O)C[C@H](O)CCC34/C=N/NC(=O)c3ccccc3F)C1(O)CCC2C1=CC(=O)OC1` (stereo not given in full) the “activity, negative = inhibition” value was inactive: 2.39%.
With `CSc1ccc(C(=O)C2CCCN(Cc3cc4ccccc4[nH]3)C2)cc1` (stereo not given) the Potency was inconclusive: 35.5 µM [inhibitor, single point].
For `O=c1[nH]c(O)c(N=Nc2cc(C(F)(F)F)ccc2Cl)c(=O)[nH]1`, the Potency was inconclusive: 5.62 µM [inhibitor, single point].
For `Cc1cccc(-n2c(/C=C/c3ccccc3O)nc3ccccc3c2=O)c1`, the Potency was active: 11.2 µM.
With `Cc1nc2cc(C(F)(F)F)ccc2n1C1CCN(Cc2nnnn2CCc2ccccc2)CC1` the Potency was inconclusive: 15.8 µM [inhibitor, single point].
With `C=CCn1c(O)c(C(CC)=Nc2ccc(N(C)C)cc2)c(=O)[nH]c1=O` the Potency was inconclusive: 3.16 µM [inhibitor, single point].
In the case of `CCOC(=O)[C@]12Cc3cc(N(C)C)ccc3[C@H]1N(Cc1ccccc1)C(=O)c1ccccc12`, the Potency is reported as inconclusive: 35.5 µM [inhibitor, single point].
In the case of `CCOc1cccc(CC(=O)NCc2ccc3c(c2)CCN3C(=O)c2cccc(C)c2)c1OCC`, the Potency is reported as inconclusive: 10 µM [inhibitor, partial curve].
For `CCN1C(=O)c2ccccc2Sc2ccc(NC(=O)Cc3ccc(OC)c(OC)c3)cc21`, the Potency was inconclusive: 0.631 µM [inhibitor, full curve, poor fit].
For `CCOC(=O)c1ccc(-[n+]2c(-c3ccccc3)cc(-c3ccccc3)cc2-c2ccccc2)cc1`, the Potency was inconclusive: 28.2 µM [inhibitor, single point].
With `O=C1NC(=O)N(Cc2ccco2)C(=O)/C1=C\c1cccn1CCOc1ccc(Cl)cc1` the Potency was inconclusive: 35.5 µM [inhibitor, single point].
With `CCCCCCOc1ccc(CN2CCN(CC)CC2)cc1` the Potency was inconclusive: 35.5 µM [inhibitor, single point].
In the case of `COC(=O)C1=C(c2ccccc2)C[C@@H]2CC[C@H]1N2C(=O)NCCCOC(C)C`, the “activity, negative = inhibition” value is reported as inactive: 9.46%.
For `c1ccc2nc3ccccc3cc2c1`, the Potency was inconclusive: 22.4 µM [inhibitor, single point].
In the case of `C[C@@H]1C[C@@H]2O[C@H]2/C=C\C=C\C(=O)Cc2c(Cl)c(O)cc(O)c2C(=O)O1`, the Potency is reported as inconclusive: 0.631 µM [inhibitor, partial curve, poor fit].
For `c1ccc(N2[C@@H]3CC[C@H]2c2ccccc2C3)cc1`, the “activity, negative = inhibition” value was inactive: 4.99%.
For `COc1ccc(Br)cc1CN1CCN(C(=O)Cc2ccccc2)CC1`, the Potency was inconclusive: 0.794 µM [inhibitor, full curve, poor fit].
For `O=C(CCl)Nc1sccc1C(=O)c1ccccc1`, the Potency was inconclusive: 35.5 µM [inhibitor, single point].
For `Cc1ccccc1C1CC(=O)Nc2ccc3ccccc3c21` (stereo not given), the Potency was active: 12.6 µM.
In the case of `COC(=O)C1=C(c2ccccc2)C[C@@H]2CC[C@H]1N2C(=O)NCc1ccc(F)cc1`, the “activity, negative = inhibition” value is reported as inactive: 5.64%.
With `Clc1ccccc1N1CCN(Cc2ccc3c(c2)OCO3)CC1` the Potency was inconclusive: 14.1 µM [inhibitor, single point].
In the case of `Cc1cc2n(n1)C(c1cc(C(C)(C)C)c(O)cc1O)Nc1ccccc1-2` (stereo not given), the Potency is reported as inconclusive: 31.6 µM [inhibitor, single point].
For `COC(=O)C1=C(c2ccc(S(C)(=O)=O)cc2)C[C@@H]2CC[C@H]1N2C(=O)N1CCC(C)CC1`, the Potency was inconclusive: 1 µM [inhibitor, full curve, poor fit].
In the case of `CN1CCCC1C(O)(c1ccccc1)c1ccccc1` (stereo not given), the Potency is reported as inconclusive: 25.1 µM [inhibitor, single point].
For `COc1ccc(C(=O)Nc2ccc(Cl)cc2C(=O)c2ccccc2)c(OC)c1`, the Potency was inconclusive: 20 µM [inhibitor, single point].
In the case of `Cc1ccccc1CN1C(=O)CN=C(c2ccccc2)c2cc(Cl)ccc21`, the Potency is reported as inconclusive: 35.5 µM [inhibitor, single point].
With `Cc1nn(Cc2ccccc2)c(C)c1C(=O)OCC(=O)NC1CCS(=O)(=O)C1` (stereo not given) the “activity, negative = inhibition” value was inactive: 7.44%.
In the case of `COc1cc(/C=C/C(=O)c2c(O)n(CCc3ccccc3)c(=O)[nH]c2=O)ccc1O`, the “activity, negative = inhibition” value is reported as inactive: 0%.
With `CC1=NNC(=O)C1Br` (stereo not given) the Potency was inconclusive: 35.5 µM [inhibitor, single point].
In the case of `CCOC(=O)c1cccc(NC(=O)NCc2ccc3c(c2)CCN3C(=O)c2ccccc2)c1`, the Potency is reported as inconclusive: 3.55 µM [inhibitor, partial curve, poor fit].
With `CCCCc1ccc(NC(=O)c2cccn(Cc3ccc(Cl)cc3)c2=O)cc1` the Potency was inconclusive: 0.112 µM [inhibitor, full curve, poor fit].
With `CC(=O)Nc1ccc(N=Cc2c(O)n(Cc3ccco3)c(=O)[nH]c2=O)cc1` the “activity, negative = inhibition” value was inactive: 0.0595%.
In the case of `Nc1c(C(=O)OCC2CCCO2)c2nc3ccccc3nc2n1Cc1cccs1` (stereo not given), the Potency is reported as inconclusive: 35.5 µM [inhibitor, single point].
In the case of `CCCCn1c(=O)c(C(=O)Nc2cnccn2)c(O)c2ccccc21`, the “activity, negative = inhibition” value is reported as inactive: 2.01%.
With `O=C(NC(=O)c1c(F)cccc1F)Nc1cc(Cl)c(F)c(Cl)c1F` the Potency was inconclusive: 25.1 µM [inhibitor, single point].
For `CCc1ccc2nc(N3CCC(C(=O)N4CCC5(CC4)OCCO5)CC3)sc2c1`, the “activity, negative = inhibition” value was inactive: -19.1%.
With `CC(=O)c1cn(Cc2ccc(C#N)cc2)c2ccccc12` the “activity, negative = inhibition” value was inactive: -26%.
For `CCOC(=O)CC(NC(=O)C(Cc1ccc(N(CCCl)CCCl)cc1)NC(C)=O)C(=O)OCC` (stereo not given), the Potency was inconclusive: 0.794 µM [inhibitor, full curve, poor fit].
With `COC12C(COC(N)=O)C3=C(C(=O)C(C)=C(N)C3=O)N1CC1C2N1C` (stereo not given) the “activity, negative = inhibition” value was inactive: -29.2%.
For `CCOP(=O)(OCC)c1nc(-c2ccc(Cl)cc2)oc1NCc1ccccc1`, the Potency was inconclusive: 20 µM [inhibitor, single point].
For `O=c1c2ccccc2[nH]c(=S)n1-c1ccc2c(c1)OCCO2`, the Potency was inconclusive: 5.62 µM [inhibitor, full curve, poor fit].
With `COC(=O)C1=C(c2cccc(OCc3ccccc3)c2)C[C@@H]2CC[C@H]1N2C(=O)NCc1ccc(Cl)cc1` the “activity, negative = inhibition” value was inactive: -13.2%.
For `C=CCn1c(O)c(/C(CC)=N/NC(=S)Nc2ccccc2)c(=O)[nH]c1=O`, the “activity, negative = inhibition” value was inactive: 4.1%.
In the case of `CC(=O)N1CCN(c2ccc(OC[C@@H]3CO[C@@](Cn4ccnc4)(c4ccc(Cl)cc4Cl)O3)cc2)CC1`, the Potency is reported as inconclusive: 12.6 µM [inhibitor, partial curve, poor fit].
With `COC(=O)C1=C(c2cccc(OCc3ccccc3)c2)C[C@@H]2CC[C@H]1N2C(=O)NC1CCN(Cc2ccccc2)CC1` the Potency was inconclusive: 22.4 µM [inhibitor, single point].
For `Cc1ccc(Cn2cc(C=O)c(-c3ccc(C)cc3)n2)cc1`, the Potency was inconclusive: 35.5 µM [inhibitor, single point].
